Assay results from the supplement of paper PMC8728848.
Some of the results follow.

What was measured:
Assay in all cases: glycan array binding signal (z-score within array); higher = stronger binding
Conditions in all cases: glycan notation: IUPAC condensed, linker removed
[1] = target: Gal(b1-3)GlcNAc(b1-6)[Gal(b1-3)]GalNAc
Outline: (§1)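 Glycan array data came from 3228 arrays in the Consortium for Functional Glycomics database, and only arrays with an available protein sequence were kept. Glycan names were put into IUPAC-condensed notation, and columns mapping to the same glycan were averaged. The binding signal is a within-array Z-score, averaged across arrays of one protein sequence run at different concentrations or buffers and across linkers. A negative Z-score can be read as non-binding.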

[2] = target: Gal(b1-3)GlcNAc6S
Outline: as §1

[3] = target: Gal(b1-3)[Fuc(a1-4)]GlcNAc
Outline: as §1

[4] = target: Gal(b1-3)[Fuc(a1-4)]GlcNAc(b1-2)Man
Outline: as §1

[5] = target: Gal(b1-3)[Fuc(a1-4)]GlcNAc(b1-2)Man(a1-3)[Gal(b1-3)[Fuc(a1-4)]GlcNAc(b1-2)Man(a1-6)]Man(b1-4)GlcNAc(b1-4)[Fuc(a1-6)]GlcNAc
Outline: as §1

[6] = target: Gal(b1-3)[Fuc(a1-4)]GlcNAc(b1-3)Gal(b1-3)[Fuc(a1-4)]GlcNAc
Outline: as §1

[7] = target: Gal(b1-3)[Fuc(a1-4)]GlcNAc(b1-3)Gal(b1-4)[Fuc(a1-3)]GlcNAc
Outline: as §1

[8] = target: Gal(b1-3)[Fuc(a1-4)]GlcNAc(b1-6)GalNAc
Outline: as §1

[9] = target: Gal(b1-3)[GlcNAc(b1-6)]GalNAc
Outline: as §1

[10] = target: Gal(b1-3)[Neu5Ac(a2-6)]GalNAc
Outline: as §1

[11] = target: Gal(b1-3)[Neu5Ac(a2-6)]GlcNAc(b1-4)Gal(b1-4)Glc
Outline: as §1

[12] = target: Gal(b1-3)[Neu5Ac(b2-6)]GalNAc
Outline: as §1

[13] = target: Gal(b1-4)Gal
Outline: as §1

[14] = target: Gal(b1-4)GalNAc(a1-3)[Fuc(a1-2)]Gal(b1-4)GlcNAc
Outline: as §1

[15] = target: Gal(b1-4)GalNAc(b1-3)[Fuc(a1-2)]Gal(b1-4)GlcNAc
Outline: as §1

[16] = target: Gal(b1-4)Glc
Outline: as §1

[17] = target: Gal(b1-4)Glc6S
Outline: as §1

[18] = target: Gal(b1-4)GlcNAc
Outline: as §1

[19] = target: Gal(b1-4)GlcNAc(a1-6)Gal(b1-4)GlcNAc
Outline: as §1

[20] = target: Gal(b1-4)GlcNAc(b1-2)Man
Outline: as §1

[21] = target: Gal(b1-4)GlcNAc(b1-2)Man(a1-3)Man(b1-4)GlcNAc(b1-4)GlcNAc
Outline: as §1

[22] = target: Gal(b1-4)GlcNAc(b1-2)Man(a1-3)[Gal(b1-4)GlcNAc(b1-2)Man(a1-6)]Man(b1-4)GlcNAc(b1-4)GlcNAc
Outline: as §1

[23] = target: Gal(b1-4)GlcNAc(b1-2)Man(a1-3)[Gal(b1-4)GlcNAc(b1-2)Man(a1-6)]Man(b1-4)GlcNAc(b1-4)[Fuc(a1-6)]GlcNAc
Outline: as §1

[24] = target: Gal(b1-4)GlcNAc(b1-2)Man(a1-3)[Gal(b1-4)GlcNAc(b1-2)Man(a1-6)][Gal(b1-4)GlcNAc(b1-4)]Man(b1-4)GlcNAc(b1-4)[Fuc(a1-6)]GlcNAc
Outline: as §1

[25] = target: Gal(b1-4)GlcNAc(b1-2)Man(a1-3)[Gal(b1-4)GlcNAc(b1-2)Man(a1-6)][GlcNAc(b1-4)]Man(b1-4)GlcNAc(b1-4)[Fuc(a1-6)]GlcNAc
Outline: as §1

[26] = target: Gal(b1-4)GlcNAc(b1-2)Man(a1-3)[GlcNAc(b1-2)Man(a1-6)]Man(b1-4)GlcNAc(b1-4)GlcNAc
Outline: as §1

[27] = target: Gal(b1-4)GlcNAc(b1-2)Man(a1-3)[GlcNAc(b1-4)][Gal(b1-4)GlcNAc(b1-2)Man(a1-6)]Man(b1-4)GlcNAc(b1-4)GlcNAc
Outline: as §1

[28] = target: Gal(b1-4)GlcNAc(b1-2)Man(a1-3)[Man(a1-6)]Man(b1-4)GlcNAc(b1-4)GlcNAc
Outline: as §1

[29] = target: Gal(b1-4)GlcNAc(b1-2)Man(a1-6)Man(b1-4)GlcNAc(b1-4)GlcNAc
Outline: as §1

[30] = target: Gal(b1-4)GlcNAc(b1-2)Man(a1-6)[GlcNAc(b1-2)Man(a1-3)]Man(b1-4)GlcNAc(b1-4)GlcNAc
Outline: as §1

[31] = target: Gal(b1-4)GlcNAc(b1-2)Man(a1-6)[Man(a1-3)]Man(b1-4)GlcNAc(b1-4)GlcNAc
Outline: as §1

[32] = target: Gal(b1-4)GlcNAc(b1-2)[Gal(b1-4)GlcNAc(b1-4)]Man(a1-3)[Gal(b1-4)GlcNAc(b1-2)Man(a1-6)]Man(b1-4)GlcNAc(b1-4)GlcNAc
Outline: as §1

[33] = target: Gal(b1-4)GlcNAc(b1-2)[Gal(b1-4)GlcNAc(b1-4)]Man(a1-3)[Gal(b1-4)GlcNAc(b1-2)[Gal(b1-4)GlcNAc(b1-6)]Man(a1-6)]Man(b1-4)GlcNAc(b1-4)GlcNAc
Outline: as §1

[34] = target: Gal(b1-4)GlcNAc(b1-2)[Gal(b1-4)GlcNAc(b1-4)]Man(a1-3)[GlcNAc(b1-4)][Gal(b1-4)GlcNAc(b1-2)Man(a1-6)]Man(b1-4)GlcNAc(b1-4)GlcNAc
Outline: as §1

[35] = target: Gal(b1-4)GlcNAc(b1-2)[Gal(b1-4)GlcNAc(b1-4)]Man(a1-3)[GlcNAc(b1-4)][Gal(b1-4)GlcNAc(b1-2)[Gal(b1-4)GlcNAc(b1-6)]Man(a1-6)]Man(b1-4)GlcNAc(b1-4)GlcNAc
Outline: as §1

[36] = target: Gal(b1-4)GlcNAc(b1-2)[Gal(b1-4)GlcNAc(b1-6)]Man(a1-6)[Gal(b1-4)GlcNAc(b1-2)Man(a1-3)]Man(b1-4)GlcNAc(b1-4)GlcNAc
Outline: as §1

[37] = target: Gal(b1-4)GlcNAc(b1-2)[Gal(b1-4)GlcNAc(b1-6)]Man(a1-6)[Gal(b1-4)GlcNAc(b1-2)Man(a1-3)]Man(b1-4)GlcNAc(b1-4)[Fuc(a1-6)]GlcNAc
Outline: as §1

B1: Cohesin-hDECTIN-1 (Homo sapiens) (protein)
chain: LDITSHHHHHHDDLDAVRIKVDTVNAKPGDTVRIPVRFSGIPSKGIANCDFVYSYDPNVLEIIEIEPGDIIVDPNPDKSFDTAVYPDRKIIVFLFAEDSGTGAYAITKDGVFATIVAKVKEGAPNGLSVIKFVEVGGFANNDLVEQKTQFFDGGVNVGDTTEPATPTTPVTTPTTTDDLDAASSSPCPPNWIIYEKSCYLFSMSLNSWDGSKRQCWQLGSNLLKIDSSNELGFIVKQVSSQPDNSFWIGLSRPQTEVPWLWEDGSTFSSNLFQIRTTATQENPSPNCVWIHVSVIYDQLCSVPSYSICEKKFM
**Q.** Which “glycan array binding signal (z-score)” value [1] does the source give for B1 here?
**A.** -0.299

**Q.** And the “glycan array binding signal (z-score)” value [2]?
**A.** -0.25

**Q.** What about the “glycan array binding signal (z-score)” value [3] of the same binder?
**A.** -0.306

**Q.** What about the “glycan array binding signal (z-score)” value [4] of the same binder?
**A.** -0.339

**Q.** And the “glycan array binding signal (z-score)” value [5]?
**A.** 0.234

**Q.** What about the “glycan array binding signal (z-score)” value [6] of the same binder?
**A.** 1

**Q.** And the “glycan array binding signal (z-score)” value [7]?
**A.** -0.364

**Q.** What about the “glycan array binding signal (z-score)” value [8] of the same binder?
**A.** 0.14

**Q.** What about the “glycan array binding signal (z-score)” value [9] of the same binder?
**A.** -0.351

**Q.** And the “glycan array binding signal (z-score)” value [10]?
**A.** -0.408

**Q.** And the “glycan array binding signal (z-score)” value [11]?
**A.** 0.121

**Q.** And the “glycan array binding signal (z-score)” value [12]?
**A.** -0.465

**Q.** And the “glycan array binding signal (z-score)” value [13]?
**A.** -0.415

**Q.** And the “glycan array binding signal (z-score)” value [14]?
**A.** 0.045

**Q.** What about the “glycan array binding signal (z-score)” value [15] of the same binder?
**A.** -0.067

**Q.** And the “glycan array binding signal (z-score)” value [16]?
**A.** -0.373

**Q.** And the “glycan array binding signal (z-score)” value [17]?
**A.** -0.485

**Q.** What about the “glycan array binding signal (z-score)” value [18] of the same binder?
**A.** -0.424

**Q.** What about the “glycan array binding signal (z-score)” value [19] of the same binder?
**A.** -0.267

**Q.** What about the “glycan array binding signal (z-score)” value [20] of the same binder?
**A.** -0.296

**Q.** And the “glycan array binding signal (z-score)” value [21]?
**A.** -0.185

**Q.** What about the “glycan array binding signal (z-score)” value [22] of the same binder?
**A.** -0.071

**Q.** And the “glycan array binding signal (z-score)” value [23]?
**A.** -0.466

**Q.** And the “glycan array binding signal (z-score)” value [24]?
**A.** -0.514

**Q.** What about the “glycan array binding signal (z-score)” value [25] of the same binder?
**A.** -0.463

**Q.** What about the “glycan array binding signal (z-score)” value [26] of the same binder?
**A.** -0.407

**Q.** What about the “glycan array binding signal (z-score)” value [27] of the same binder?
**A.** -0.486

**Q.** What about the “glycan array binding signal (z-score)” value [28] of the same binder?
**A.** -0.444

**Q.** What about the “glycan array binding signal (z-score)” value [29] of the same binder?
**A.** -0.378

**Q.** And the “glycan array binding signal (z-score)” value [30]?
**A.** -0.399

**Q.** And the “glycan array binding signal (z-score)” value [31]?
**A.** -0.377

**Q.** And the “glycan array binding signal (z-score)” value [32]?
**A.** -0.581

**Q.** What about the “glycan array binding signal (z-score)” value [33] of the same binder?
**A.** -0.507

**Q.** And the “glycan array binding signal (z-score)” value [34]?
**A.** -0.354

**Q.** And the “glycan array binding signal (z-score)” value [35]?
**A.** 0.176

**Q.** And the “glycan array binding signal (z-score)” value [36]?
**A.** -0.001

**Q.** What about the “glycan array binding signal (z-score)” value [37] of the same binder?
**A.** 0.659
